Experimental data taken from PubChem BioAssay AID686979 (National Center for Advancing Translational Sciences (NCATS), 2013).
The whole screen tested about 420,000 compounds, of which about 50,000 (12%) were called active. The inconclusive results got no clear call from the source; some entries with a clear call stand among them for comparison. Calls come from the whole dose curve; as a rule, active = well fitted inhibition curve with a large enough effect; inconclusive = small, poorly fitted or top-dose-only effect; inactive = flat fitted curve, though single readings scatter. No potency is given beside an inconclusive call; the fits are too rough. Some structures have more than one record in an assay (separate samples or runs), and their calls can disagree.

Assay: qHTS for Inhibitors of human tyrosyl-DNA phosphodiesterase 1 (TDP1): qHTS in cells in presence of CPT; note: nearly all actives have a fitted effect of over 55% in size
Conditions: chicken DT40 Tdp1-/-;hTDP1 cells + 20 nM CPT, ATP luminescence, 48 h; activity change, negative = growth inhibition: at 46.2 µM (top of the series)
How it was run: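 Chicken DT40 Tdp1-/- cells complemented with human TDP1, 400 cells/well, exposed to compounds plus 20 nM camptothecin for at least 48 h at 37 C; viability read as ATP content by CellTiter-Glo luminescence.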
% is set by controls: 0 for no effect and ±100 for the full control effect; potency is the fitted concentration of half-maximal effect; tags give direction and shape of the fitted curve.

| Compound | Potency | activity change, negative = growth inhibition |
| --- | --- | --- |
| CCOC(=O)N1CCN(C(=O)CN(c2ccc(OCc3ccccc3)cc2)S(C)(=O)=O)CC1 | inconclusive [inhibitor, single point] |  |
| COC(=O)C1=C(C)NC(=O)/C1=C\c1cc(C)n(-c2ccccc2F)c1C |  | inactive: 1.94% |
| Cc1cc2nc(-c3cccc(NC(=O)c4cccc5ccccc45)c3)oc2cc1C |  | inactive: -16.7% |
| C=CCNCCOCCOc1ccc(C)cc1Br | inconclusive [inhibitor, partial curve, poor fit] |  |
| COc1cc(CN2CCNC(=O)C2CC(=O)NCc2csc(C(C)C)n2)cc(OC)c1 (stereo unspecified) |  | inactive: -5.86% |
| Nc1ccc(/C=C/c2ccc3cccnc3c2)cc1 | inconclusive [inhibitor, single point] |  |
| Cc1cccc2cc(C#N)c(NCCNC(=O)COc3ccccc3)nc12 | inconclusive [inhibitor, single point] |  |
| Cc1cccc(OCC(=O)Nc2cccc(OCc3cc(=O)n4cccc(C)c4n3)c2)c1 | active: 20.6 µM |  |
| O=C(Nc1ccccc1Oc1ccsc1C(=O)O)c1ccccc1F |  | inactive: 3.89% |
| CCN(CC)Cc1cc(NC2=NS(=O)(=O)c3ccccc32)ccc1OC(=O)c1ccccc1 | inconclusive [inhibitor, single point] |  |
| Cc1ccc(-n2c(C)cc(-c3csc(N)n3)c2C)cc1 | inconclusive [inhibitor, single point] |  |
| CCCCCCCCN1C(=O)[C@H](CC(=O)NCC2CCCCC2)C[C@@]2(C(=O)OC)CC(C)(C)CC=C12 | inconclusive [inhibitor, single point] |  |
| O=C(Nc1ccc(F)cc1)C(c1ccccc1)N1CCN(CC(=O)N2CCOCC2)CC1 (stereo unspecified) |  | inactive: -19.5% |
| C=C(C)c1ccc(C(C)(C)NC(=O)N(Cc2ccccc2)Cc2ccco2)cc1 | active: 18.4 µM |  |
| CC1CCCN(C(=O)c2cc3ccc4cccnc4c3[nH]2)C1 (stereo unspecified) | inconclusive [inhibitor, single point] |  |
| C=Cn1cc[n+](CC(=O)c2ccc(-c3ccccc3)cc2)c1 | active: 3.26 µM |  |
| CCN(CC)c1ccc2cc(C(=O)Nc3ccccn3)c(=O)oc2c1 | active: 4.47 µM |  |
| Cc1c(Br)c([N+](=O)[O-])nn1CCCC(=O)N1CCN(c2ccccc2)CC1 |  | inactive: -6.88% |
| COc1ccc(CNC(=S)Nc2ccccc2Cl)cc1 |  | inactive: -12.2% |
| O=C(OCc1nc2scc(-c3ccccc3)c2c(=O)[nH]1)c1cc([N+](=O)[O-])ccc1Cl | inconclusive [inhibitor, partial curve, poor fit] |  |
| COc1cccc(CNn2c(-c3cccc(C)c3)nc3ccccc3c2=O)c1O | inconclusive [inhibitor, single point] |  |
